Source: PubChem BioAssay (NCI)
Where “and” joins values, the source holds several entries; their conditions need not be identical. Equal values may be shown once.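 Protocol summary: plate cells (96-well), add compound at 5 concentrations, incubate 48 h, interpolate endpoints linearly. The concentration for 50% growth inhibition is given as GI50. TGI marks complete inhibition of growth.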

System: NCI-H322M lung
Test: NCI tumour cell line growth inhibition, 48 h

SMILES | GI50 | TGI
CCN1CCN(CCNc2nccc(-c3c(-c4ccc(F)c(O)c4)nc4occn34)n2)S1(=O)=O | > 100 µM | > 100 µM
CC(C)(C)c1cc(/C=C(\C#N)C2=NCCO2)cc(C(C)(C)C)c1O | – | 10.6 µM
CCn1c(SCC(=O)N/N=C2\SCC(=O)N2c2ccc(C)cc2)nc2ccccc2c1=O | – | 33.5 µM
CN(C)c1ccc(/C=C/C=c2/c3ccccc3n3c2cc(-c2ccccc2)[n+]3C)cc1 | – | 1.23 µM
O=C(C[n+]1ccccc1)N/N=C(/CCC(=O)N(Cc1ccccc1)Cc1ccccc1)CC(=O)c1ccccc1 | – | > 100 µM
CCOC(=O)c1ccc(-n2cnc(-c3ccc([N+](=O)[O-])cc3)c2)cc1 | – | > 100 µM
Cc1ccc2nc3ccccc3c(C3C4C(=O)N(c5ccc(F)cc5)C(=O)C4ON3C(C(N)=O)c3ccccc3)c2c1 (stereo not given) | – | > 100 µM
COc1ccc2c(c1)c(-c1nc(-c3cn(C)c4ccncc34)cs1)cn2C | 1.78 µM | 3.42 µM
CC1(C)N=C(N)N=C(N)N1c1ccc(CNC(=O)Nc2ccc(S(=O)(=O)F)c(Cl)c2)c(Cl)c1 | 1.38 µM | > 100 µM
Cc1c(Cn2c(C)nc3c(C(=O)O)cc(N4CCOCC4)cc32)cccc1C(F)(F)F | 66.3 µM | > 100 µM
CCC[CH2][Sn](=[O])[CH2]CCC | > 50 µM | > 50 µM
C=C1C2CCC3C4(C)CCCC(C)(C(=O)O)C4CCC3(C2)C1OC(=O)/C(C)=C/C (stereo not given) | – | > 100 µM
CN(O)C(=O)CCC(NC(=O)CCC(N)C(=O)O)C(=O)NCC(=O)O (stereo not given) | – | > 100 µM
CN1CCC2(CC1)SSC1(CCN(C)CC1)S2 | – | > 100 µM
COc1ccc2cc(-c3cnc4nonc4n3)ccc2c1 | 5.38 µM | > 100 µM
CCCCSC1=N/C(=C\c2ccccc2O)C(=O)N1 | – | > 100 µM
COC(=O)c1cc2c(c(C(=O)OC)c1)CCC2 | – | > 100 µM
O=[N+]([O-])c1nccn1CC(O)c1ccccc1 (stereo not given) | – | > 100 µM
C(=N\c1nc2cc3sc(/N=C/c4ccccc4)nc3cc2s1)/c1ccccc1 | – | > 100 µM
CC1OC(OC2C(O)COC(OC3C(C)OC(OC4C(OC(=O)[C@]56CCC(C)(C)C[C@@H]5C5=CCC7[C@@]8(C)C[C@H](O)[C@H](OC9OC(CO)C(O)C(O)C9O)[C@@](C)(CO)[C@@H]8CC[C@@]7(C)[C@]5(C)CC6)OCC(O)C4O)C(O)C3O)C2O)C(O)C(O)C1O (stereo not given in full) | – | 33.2 µM
O=C1c2c(c(=O)[nH]c3ccccc23)[C@H](c2ccccc2)[C@@H]2CCCN12 | 2.74 µM | 13.4 µM
O=[N+]([O-])c1ncc(N(CCO)CCO)s1 | – | > 100 µM

SMILES | GI50 | TGI
COc1ccc(-c2ncnc3c2ncn3CC#CCCl)cc1 | 12.5 µM | 25.6 µM
COc1ccc(/C=C2\N=C(N3CCCC(CO)C3)NC2=O)cc1 (stereo not given) | – | > 100 µM
COc1ccc(CCN2CCN(CCCc3ccccc3)CC2)cc1 | – | > 100 µM
S=P1(Sc2ccccc2)Oc2ccc3ccccc3c2-c2c(ccc3ccccc23)O1 | – | > 93.3 µM
ClCc1nc2ccccc2[nH]1 | – | > 100 µM
Oc1ccccc1-c1nn(CNc2ccc(Cl)cc2)c(=S)o1 | 8.96 µM | > 100 µM
COC(=O)c1ccc(NCc2cc(OC)ccc2OC)cc1 | – | > 100 µM
COc1ccc2c(c1)CCC1C2CC[C@@]2(C)C1CC[C@@H]2NC(=O)Cc1ccc(O)c(O)c1 (stereo not given in full) | 18.9 µM | 39.4 µM
NC1=Nc2ccccc2Sc2nncn21 | – | > 100 µM
COc1ccc(/[N+]([O-])=C/c2ccc(OC(=S)S)c(OC)c2)cc1 | – | > 100 µM
CC(C)(C)C(=O)N1C(C(=O)O)Cc2ccccc2[C@@H]1Cc1ccccc1 (stereo not given in full) | – | > 100 µM
COc1nc(N)nc2c1ncn2C1CC(O)C(CO)O1 (stereo not given) | – | > 100 µM
Nc1ncnc2c1ncn2[C@H]1C=C[C@@H](NO)C1 | – | > 100 µM
Fc1cccc(COc2ccc(Nc3ncnc4onc(-c5ccccc5)c34)cc2)c1 | 0.441 µM | > 100 µM
CCCc1nn(C)c2c(=O)[nH]c(-c3cc(S(=O)(=O)N4CCN(C)CC4)ccc3OCC)nc12 | > 100 µM | > 100 µM
CCOC(=O)C12CCCC1(O)N(NC(=O)OC)C(C)=C2C(=O)OC (stereo not given) | – | > 100 µM
CN(C)c1ccc(/C=c2\sc3nnc(-c4ccco4)n3c2=O)cc1 | – | > 100 µM
O=C(CC1(O)C(=O)Nc2c(Cl)cc(Cl)cc21)c1ccccc1 (stereo not given) | – | > 100 µM
CN(C)CCNc1ccc2ncn3c4ccc(O)cc4c(=O)c1c23 | – | 10.4 µM
CC(C)(C)C1=C(Br)C(F)(C(C)(C)C)OP1(=O)c1ccccc1 (stereo not given) | – | 37.3 µM
Nc1ncc(-c2ccc3ncnc(Nc4cccc(Cl)c4)c3c2)cn1 | 0.123 µM | > 100 µM
OC1CC2CCC(C1)N2CCCN1c2ccccc2Sc2ccc(Cl)cc21 (stereo not given) | – | 8.22 µM

SMILES | GI50 | TGI
C(=N\Nc1ncc(-c2cc3cc4c(cc3o2)OCO4)s1)/c1ccco1 | 4.15 µM | 24.2 µM
CC(C)(C)c1ccc2c(c1)OP1(Oc3c(Cl)cc(Cl)c4cccnc34)(O2)Oc2ccc(C(C)(C)C)cc2O1 | – | 26.1 µM
O=C(Cc1ccc2ccccc2c1)NCc1ccc(C(=O)NCCc2ccccc2)cc1 | – | > 100 µM
CC1(C)Oc2ccc3ccc(=O)oc3c2C(O)C1O (stereo not given) | – | > 100 µM
COc1ccc(/C=C/c2cc(OC)c(OC(C)=O)c(OC)c2)cc1 | – | > 100 µM
Cc1cc(N(CCC#N)CCC#N)ccc1/C(N=Nc1ccc([N+](=O)[O-])cc1)=N\NC(=O)c1cc(Cl)ccc1O | – | > 100 µM
FC1(F)ON2CCc3ccccc3C2[C@H]1c1ccccc1 (stereo not given in full) | > 100 µM | > 100 µM
Cc1nc(OCc2ccccc2)c2ncn(CCO)c2n1 | – | > 100 µM
NC(=S)N/N=C/c1ccc(OC(=O)COc2cc(Cl)c(Cl)cc2Cl)cn1 | 4.62 µM | > 100 µM
CN(C)c1ccc(/C=N/NC(N)=S)nc1 | 6.46 µM | > 100 µM
Cn1ncc(Cl)c1-c1cc(C(=O)N[C@H](CN)Cc2cccc(F)c2)sc1Cl | 2.6 µM and 5.87 µM | > 10 µM and 19.7 µM
COc1cc(-n2ccnc2-c2ccc3ccccc3c2)cc(OC)c1OC | 0.47 µM | > 100 µM
NCCCCC(NC(=O)C(N)CCCN=C(N)N)C(=O)NC(CCCCN)C(=O)NC(CCCN=C(N)N)C(=O)NC(CCCN=C(N)N)C(=O)NC(CCC(N)=O)C(=O)NC(CCCN=C(N)N)C(=O)NC(CCCN=C(N)N)C(=O)NC(CCCN=C(N)N)C(=O)NCC(=O)NCC(=O)O (stereo not given) | > 50 µM | > 50 µM
Cc1ccc(S(=O)(=O)ON2C(=O)c3cccc4cc([N+](=O)[O-])cc(c34)C2=O)cc1 | – | > 100 µM
CC(NC1=NCCO1)c1ccccc1Cl (stereo not given) | – | > 100 µM
CCCn1cc2c(=O)[nH]c(SC)nc2n1 | – | > 100 µM
C=C(C)[C@@H]1CC[C@]2(CO)CC[C@]3(C)[C@H](CC[C@@H]4[C@@]5(C)CCCNC(C)(C)[C@@H]5CC[C@]43C)[C@@H]12 | 1.63 µM | 3.03 µM
CCOC(=O)CNC(=O)C(CCC(=O)N(C)O)NC(=O)CCC(N)C(=O)O (stereo not given) | – | > 100 µM
COc1cc(CCC[P+](c2ccccc2)(c2ccccc2)c2ccccc2)c(OC)c2c1OCO2 | 3.18 µM | 29.1 µM
COc1c2c(c3c(c1OC)c(=O)c1ccccc1n3C)OCO2 | – | > 100 µM
OC1NC2Nc3ccccc3NC2NC1O (stereo not given) | – | > 100 µM
C#C[C@]1(O)CC[C@H]2[C@@H]3CCC4=C/C(=N\OCCN5CCCCC5)CC[C@]4(C)[C@H]3CC[C@@]21C | – | 28 µM

SMILES | GI50 | TGI
CCSC[C@@H]1C[C@](O)(c2ccc(Cl)cc2)[C@@H](c2ccc(Cl)cc2)O1 | 19.4 µM | 39.8 µM
CC(=O)OCc1c(O)c2c([nH]c1=O)CCc1ccccc1-2 | – | > 350 µM
O=C(O)c1cccc(S(=O)(=O)NCCO)c1 | – | > 100 µM
O=S1(=O)c2ccccc2N(O)C2=NCCN21 | – | > 100 µM
Cc1c(NC(=S)Nc2ccc([N+](=O)[O-])cc2)c(=O)n(-c2ccccc2)n1C | – | > 100 µM
CC1=CCC2CC1C(C(=O)c1c[nH]c3ccccc13)=NC2(C)C (stereo not given) | – | > 100 µM
Cn1c(-c2ccc(C=O)o2)ccc1-c1ccc(C=O)o1 | – | > 100 µM
CSC(=O)C[C@@]12O[C@@H]([C@@H](C)C3CCC4[C@@H]5C(O)CC6=CC(=O)C=C[C@]6(C)C5CC[C@@]43C)C[C@](C)(O1)C(C)(C)O2 (stereo not given in full) | – | 33.4 µM
O=c1[nH]c(Nc2ccc(Br)c(C(F)(F)F)c2)nc2nc[nH]c12 | – | > 100 µM
COC(=O)C1CCC(=O)N1C(c1ccc(OC)cc1)c1cc(OC)c(OC)c(OC)c1 (stereo not given) | – | > 31.6 µM
COc1ccc(N2C(=O)C3CC(c4ccc(Br)cc4)c4c([nH]c5ccccc45)C3C2=O)cc1 (stereo not given) | – | 75.3 µM
Cc1cn(C2CC(n3cc(Cn4ccc(=O)[nH]c4=O)nn3)C(CO)O2)c(=O)[nH]c1=O (stereo not given) | – | > 100 µM
COc1cc2nc(N3CCCN(C)CC3)nc(NC3CCN(Cc4ccccc4)CC3)c2cc1OC | 2.61 µM | 7.69 µM
CC(C)(C)OC(=O)C1C(=O)NC(=O)CC1CC(OCc1ccccc1)C(OCc1ccccc1)C(COCc1ccccc1)OCc1ccccc1 (stereo not given) | > 100 µM and 49.5 µM | > 100 µM
Cc1ccc(/C=C/C(=O)c2ccc(Cl)c(Cl)c2)cc1 | – | > 100 µM
C=C1C(C(=O)OC)[C@H]1C(=O)OC (stereo not given in full) | – | > 100 µM
O=C1c2ccccc2C(=O)N1CCc1ncc(-c2ccccc2)[nH]1 | – | > 100 µM
O=C1c2ccccc2-c2c3c(cc4ccnc1c24)OCO3 | – | 39.5 µM and > 100 µM
CC(Oc1ccc2c(-c3ccc(Cl)cc3)cc(=O)oc2c1)C(=O)O (stereo not given) | – | > 100 µM
